Reference: PubChem BioAssay AID881 (National Center for Advancing Translational Sciences (NCATS), 2007)
Several values for one entry are separate records, joined by “and”; a condition that tells them apart may be missing. Identical values can stand only once. The whole screen tested about 110,000 compounds, of which about 610 (0.55%) were called active. This list was built around the results that the source calls inconclusive (neither active nor inactive); the mix of calls is not that of the screen. Calls come from the whole dose curve; as a rule, active = well fitted inhibition curve with a large enough effect; inconclusive = small, poorly fitted or top-dose-only effect; inactive = no such curve, though single readings can be large or run the other way. A potency beside an inconclusive call is a rough fit, not a confirmed value. More than one record can exist for a structure, and the calls need not agree.

molecular target: Polyunsaturated fatty acid lipoxygenase ALOX15B (Homo sapiens) (UniProt O15296); assay: qHTS Assay for Inhibitors of 15-hLO-2 (15-human lipoxygenase 2); conditions: purified 15hLO-2, xylenol orange hydroperoxide absorbance; series mostly up to 57.1 µM; note: nearly all actives have a fitted effect of over 60% in size
UniProt O15296, sequence (O15296 whole entry, looked up): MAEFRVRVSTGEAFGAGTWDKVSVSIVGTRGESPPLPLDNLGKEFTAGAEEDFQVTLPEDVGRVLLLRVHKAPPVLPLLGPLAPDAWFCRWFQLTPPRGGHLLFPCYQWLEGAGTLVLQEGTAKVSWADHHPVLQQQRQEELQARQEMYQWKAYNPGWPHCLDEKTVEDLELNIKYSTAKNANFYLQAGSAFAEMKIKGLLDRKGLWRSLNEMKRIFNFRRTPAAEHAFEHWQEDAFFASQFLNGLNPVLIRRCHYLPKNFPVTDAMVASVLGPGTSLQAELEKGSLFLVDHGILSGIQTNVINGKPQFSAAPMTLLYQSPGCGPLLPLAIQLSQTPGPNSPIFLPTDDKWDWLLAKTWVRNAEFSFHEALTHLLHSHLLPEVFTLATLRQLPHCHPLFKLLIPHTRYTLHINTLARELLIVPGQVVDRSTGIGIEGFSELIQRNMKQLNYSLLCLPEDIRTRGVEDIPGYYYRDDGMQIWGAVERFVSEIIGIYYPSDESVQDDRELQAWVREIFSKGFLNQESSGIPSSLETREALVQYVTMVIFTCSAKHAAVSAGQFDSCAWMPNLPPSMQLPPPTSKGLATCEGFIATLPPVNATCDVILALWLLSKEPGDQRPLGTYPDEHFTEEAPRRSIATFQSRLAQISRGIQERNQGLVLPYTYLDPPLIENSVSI
Text: Assay Overview: NIH Molecular Libraries Screening Centers Network [MLSCN] NIH Chemical Genomics Center [NCGC] MLSCN Grant: MH081283-01A1 PI Name: Holman, T.R., University of California, Santa Cruz Human lipoxygenase 15hLO-2 is a member of the closely related lipoxygenase family of enzymes which catalyze the site-specific oxidation of arachidonic acid to various hormone precursor molecules and as such is a candidate for drug development in a variety of disease areas, such as cancer and inflammation. Inhibition of 15hLO-2 activity was screened by utilizing arachidonic acid as a substrate. The extent of hydroperoxide product formation was measured by a secondary chromogenic reaction in which xylenol orange (XO, Sigma-Aldrich, cat. number 39,818-7) reacts with the ferric ions produced from the reaction between the hydroperoxide and ferrous ions. The Fe(III)-XO complex is characterized with red-shifted absorbance at 560 nm. A purified preparation of human 15hLO-2 was supplied by Professor Ted Holman, University of California, Santa Cruz.
Assay Protocol: Buffer: 25 mM Hepes pH 7.5, 0.01% Triton X-100. Reagents/Controls: Buffer in columns 3 and 4 as negative control (no enzyme). Substrate solution: 45 uM arachidonic acid (Sigma-Aldrich, St. Louis, MO) final concentration dispensed throughout the plate. Enzyme: 50 nM 15hLO-2 final concentration in columns 1, 2, 5-48. Column 1 is neutral (100% activity). Column 2 contained pin-transferred titration of NDGA (nordihidroguaiaretic acid, Sigma-Aldrich, N 5023, top concentration 10 mM in DMSO, then 1:2 dilution in duplicate). (Dilution factor: 23 nL into 4 uL.) Chromogenic detection reagent (divalent iron/xylenol orange, Fe-XO): 200 uM xylenol orange plus 300 uM ferrous ammonium sulfate prepared freshly in 50 mM sulfuric acid. Assay Steps: Three uL of enzyme were dispensed to 1536-well Greiner black clear bottom plates. Compounds and controls (23 nL) were transferred via Kalypsys PinTool. The plates were incubated for 15 min at room temperature, and then 1 uL of substrate solution was added to start the reaction. After room temperature incubation for 90 minutes, 4 uL of Fe-XO solution was added to each well followed by a short spin (1000 rpm, 15 sec) and the plates were then incubated for 30 min. The absorbance at 405 and 573 nm were measured using ViewLux (Perkin-Elmer) High-throughput CCD imager and absorbance protocol settings. The 573-to-405 absorbance ratio was used to compute reaction progress.
% is set by controls: 0 for no effect and ±100 for the full control effect; potency is the fitted concentration of half-maximal effect; tags give direction and shape of the fitted curve.

| SMILES | Potency | activity change, negative = inhibition |
| --- | --- | --- |
| O=c1ccc2cc(OC3OC(CO)C(O)C(O)C3O)c(O)cc2o1 (configuration not stated) | inconclusive: 15.8 µM [inhibitor, single point] | – |
| CCOC(=O)C1C(=O)N(C)C2(C)CC1c1ccccc1O2 (configuration not stated) | inactive | – |
| N[C@@H](CP(=O)(O)O)C(=O)O | – | inactive: -5.89% [at 11.4 µM] |
| O=C(c1cc2cc3ccc(Cl)cc3nc2o1)N1CCC2(CC1)OCCO2 | inconclusive: 0.158 µM [inhibitor, full curve] | – |
| Cc1cc(-c2cc(C)c(N)c(C)c2)cc(C)c1N | inconclusive: 20 µM [inhibitor, partial curve] | – |
| Nc1nc(N)c(N=Nc2ccc([As](=O)(O)O)cc2)c(=O)[nH]1 | – | inactive: -19.4% [at 11.4 µM] |
| O=P1(NC2CCCC2)COc2ccccc2OC1 | inactive | – |
| O=C(O)[C@@H]1[C@H](C(=O)O)[C@]2(Cl)C(Cl)=C(Cl)[C@@]1(Cl)C2(Cl)Cl | inconclusive: 3.98 µM [inhibitor, single point] | – |
| N#CSCSC#N | inactive | – |
| Nc1ccc(Cl)cc1N | inactive | – |
| CCCCN1C(=O)NC(=O)/C(=C/c2cnc(SC)nc2)C1=O | inactive | – |
| C=CCSC1=N/C(=C\c2cc(OC)c3c(c2)OCO3)C(=O)S1 | inconclusive: 39.8 µM [inhibitor, single point] | – |
| C[C@@H](O)CN(CCN(C[C@@H](C)O)C[C@@H](C)O)C[C@@H](C)O.O=[N+]([O-])O.[Cu] | inconclusive: 3.16 µM [inhibitor, partial curve] | – |
| COc1ccc(CCNCc2ccc(F)cc2)cc1OC | inactive | – |
| O=c1[nH]c(=S)n(Cc2ccco2)c(O)c1C=NCc1cccs1 | inactive | – |
| C=CCN1CCc2cccc3c2[C@@H]1Cc1ccc(O)c(O)c1-3 | active: 6.31 µM | – |
| C[C@@H]1[C@H]2C=C[C@@H]1[C@@H](c1c3ccc(=O)c(O)c-3oc3c(O)c(O)ccc13)[C@@H]2C(=O)O | inconclusive: 7.94 µM [inhibitor, single point] | – |
| CCCCC/C=C\C/C=C\C/C=C\C/C=C\CCCC(=O)NCC(=O)O | active: 10 µM | – |
| CCCCC/C=C\C/C=C\C/C=C\C/C=C\CCCC(=O)NCCc1ccc(O)c(O)c1 | inconclusive: 8.91 µM [inhibitor, partial curve] | – |
| c1ccc2sc(SNC3CCCCC3)nc2c1 | inconclusive: 35.5 µM [inhibitor, single point] | – |
| NCC[Se][Se]CCN | inconclusive: 1.58 µM [inhibitor, partial curve] | – |
| O=C1C(Cl)=C(Cl)C(=O)C(Cl)=C1Cl | inconclusive: 12.6 µM [inhibitor, partial curve] | – |
| CN(C)c1ccc(N)cc1 | inconclusive: 12.6 µM [inhibitor, partial curve] | – |
| O=C1C2(Cl)C3(Cl)C4(Cl)C(Cl)(Cl)C5(Cl)C3(Cl)C1(Cl)C5(Cl)C24Cl (configuration not stated) | inconclusive: 31.6 µM [inhibitor, partial curve] | – |

| SMILES | Potency | activity change, negative = inhibition |
| --- | --- | --- |
| CC1=CC(C)C2C(=O)N(CCC[N+](C)(C)C)C(=O)C2C1 (configuration not stated) | inconclusive: 25.1 µM [inhibitor, single point] | – |
| O=NO | inconclusive: 31.6 µM [inhibitor, partial curve, poor fit] and inconclusive: 31.6 µM [inhibitor, partial curve] | – |
| C=C/C(=C/C(=O)C[C@H](C)C[C@@H](C)CC[C@H](O)[C@H](C)C(=O)C[C@@H](O)[C@H](C)[C@@H](C)OC(=O)C[C@@H](O)C1=C(C)C(=O)OC1=O)CC | inconclusive: 2.82 µM [inhibitor, partial curve] | – |
| COCc1cc(C)c(C#N)c(=S)[nH]1 | inconclusive: 25.1 µM [inhibitor, partial curve] | – |
| CCCCC/C=C\C/C=C\C/C=C\C/C=C\CCCC(=O)NCCCC(=O)O | inconclusive: 39.8 µM [inhibitor, single point] | – |
| COCCCn1c(N)c(C(=O)OCCOC)c2nc3ccccc3nc21 | inconclusive: 25.1 µM [inhibitor, single point] | – |
| C/C(=N\NC(N)=S)C12CC3CC(CC(C3)C1)C2 | inconclusive: 20 µM [inhibitor, partial curve] | – |
| COc1ccc(CCNC(=O)c2c(N)n(CCN3CCOCC3)c3nc4ccccc4nc23)cc1OC | inconclusive: 39.8 µM [inhibitor, single point] | – |
| N=c1c2c(n(Cc3ccc(Cl)cc3Cl)c3c1CCC3)CCCC2 | inactive | – |
| COC(=O)c1c(C)n(Cc2ccco2)c2ccc(O)cc12 | inconclusive: 15.8 µM [inhibitor, partial curve] | – |
| Cc1c(O)c(O)cc2c1CC=C1[C@]3(C)CC[C@]4(C)CC[C@@](C)(C(=O)O)CC4[C@]3(C)CC[C@]12C (some centres not stated) | inconclusive: 15.8 µM [inhibitor, partial curve] | – |
| COc1ccccc1N=C1SCCCN1C | inconclusive: 31.6 µM [inhibitor, single point] | – |
| CCC(C)OC(=O)c1c(N)n(Cc2cccs2)c2nc3ccccc3nc12 (configuration not stated) | inactive | – |
| CN(C)C(=O)Cl | inactive | – |
| CN1C(=O)N(C)C(=O)C2(Cc3cc(N)ccc3N3CCN(c4ccccc4F)CC32)C1=O (configuration not stated) | inconclusive: 25.1 µM [inhibitor, single point] | – |
| C[C@@H](Cc1cccc(C(F)(F)F)c1)NCCCc1ccccc1 | inactive | – |
| O=P(NS(=O)(=O)c1ccccc1)(Oc1ccccc1)Oc1ccccc1 | inactive | – |
| Cc1ccc(C)c(NC(=S)NC2CC3CCC(C2)N3Cc2ccco2)c1 (configuration not stated) | inconclusive: 3.98 µM [inhibitor, full curve, poor fit] | – |
| CN1C(=O)/C(=C/c2cccn2-c2ccc3ccccc3c2)C(=O)NC1=S | inconclusive: 15.8 µM [inhibitor, partial curve] | – |
| COC(C)(C)C | inactive | – |
| COc1ccc2[nH]cc(C3=CCNCC3)c2c1 | inactive | – |
| CC(C)c1ccc(N2C(=O)NC(=O)/C(=C\c3cnc(-c4ccccc4)nc3)C2=O)cc1 | inconclusive: 10 µM [inhibitor, partial curve] | – |
| O=C(CCS(=O)NCc1ccccc1)NCc1ccccc1 (configuration not stated) | inconclusive: 31.6 µM [inhibitor, single point] | – |
